For 34 compounds, TGI and GI50 results are on record in PubChem BioAssay (NCI).

“And” between values parts separate entries of the source, which are not always exact repeats. Identical values can stand only once.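 Interpolation was linear, between the two tested concentrations surrounding the appropriate level; five concentrations were tested over 48 hours in 96-well plates. The concentration for 50% growth inhibition is given as GI50. The concentration for full growth arrest is given as TGI.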

For this experiment, the system named is NCI-H322M lung. In words: DTP human tumour cell line panel, 48 h.
For orientation: TGI means the concentration at which net growth stops. Higher therefore signals less potent growth arrest. As for `COc1ccc(/C(Cl)=C(\C=O)c2ccc(OC)c(OC)c2)cc1`, the TGI is above 100 µM. A word on the GI50: it is the concentration at which growth is held to half of that of the control. Turning to `CCOC(=O)c1c(NC(=O)c2cccc(C(F)(F)F)c2)sc2c(CN(C)C)c(O)ccc12`, the GI50 is 6.42 µM and the TGI was 31.6 µM. For `CC(=O)[O][Ga]([Br])[O]C(C)=O` the same measures were above 100 µM and above 100 µM. For the compound `NC(=O)c1cc(S(=O)(=O)Nc2nnc(-c3ccccc3)c(-c3ccccc3)n2)c(SCc2ccccc2)cc1Cl`, the GI50 is 34.2 µM and the TGI was above 100 µM.

`CCN1CCC(O)(/C=C/c2ccc(C)cc2)C(C(=O)/C=C/c2ccc(C)cc2)C1` (stereo unspecified): the TGI is 25.8 µM. That is a double-digit micromolar value. For the compound `CC(C)(S)C(N)C(=O)O` (stereo unspecified), the GI50 is 1360 µM; the TGI was 4830 µM and > 100 µM. For `O=C(CSC1CCc2ccccc21)N/N=C/c1ccccc1O` (stereo unspecified), the GI50 is 4.25 µM and the TGI was above 100 µM. For the compound `Cc1cc2c(cc1C)C(=O)C1(C2)Cc2c(C)ccc(C)c2C1=O` (stereo unspecified), the TGI was above 100 µM.

For `O=C1c2cccc3cccc(c23)C(=O)N1CCCNCCCNCCCCNCCCNCCCN1C(=O)c2cccc3cccc(c23)C1=O`, the TGI came out at 12.7 µM. This lies in the double-digit micromolar range. On the same count and under the same terms, the figure for `Cc1c(/C=N/NC(=O)c2ccc(Cl)cc2)c(=O)n(-c2ccccc2)n1C` is above 100 µM. For `N=C(N)c1ccc2nc(-c3cc(CC(=O)N[C@@H](CC(=O)O)C(=O)O)cc(-c4cc(S(N)(=O)=O)ccc4O)c3O)[nH]c2c1`, the GI50 is above 100 µM and the TGI was above 100 µM. `O=P1(c2ccccc2)CCCCC1`: the TGI was above 100 µM. Still for that read-out and setting: to `Cc1c(C)n(-c2ccccc2)c2nc(S(C)(=O)=O)nc(S(C)(=O)=O)c12` belongs 32.9 µM. Consider `Cc1cc(C)c(C[C@H]2COC(=O)[C@]2(O)Cc2c(C)cc(C)cc2C)c(C)c1`, for which the TGI was 35.4 µM. The same measure, in the same setting: the figure for `COc1ccc(-c2nc(-c3cc4c(ccc5ccccc54)oc3=O)cs2)cc1` is above 100 µM. On to `COc1ccc(-n2cnn3c(=O)c4cn[nH]c4nc23)cc1`, for which the TGI is above 10 µM. On the same count and under the same terms, the figure for `O=C(Nc1nncs1)NS(=O)(=O)n1c(=S)sc2ccccc21` is above 100 µM. Take `Cn1cc(C2=C(c3cccc(Br)c3)C(=O)NC2=O)c2ccccc21`: the GI50 was above 21.2 µM and the TGI was above 25 µM.

Compound `Cc1cc(C)c(C(=O)c2nnc3ccccc3c2N)c(C)c1` had a TGI of 57.5 µM. On the same count and under the same terms, the figure for `CCCN1CN(C(C(=O)N[C@@H]2C(=O)N3C2SC(C)(C)C3C(=O)O)c2ccc(O)cc2)CSC1=S` (stereo partly specified) is above 100 µM; for `Cc1nc2ccc(NC(=S)Nc3ccccc3)cc2c(=O)n1-c1ccccc1` it is above 100 µM. With `CC[C@H]1CN2CCc3cc(OC)c(OC)cc3[C@@H]2C[C@@H]1C[C@H]1NCCc2c1[nH]c1ccc(O)cc21`, the GI50 was 0.0262 µM and 0.051 µM; the TGI was 0.123 µM and 0.445 µM and 1.03 µM.

`CC1COC(C)(C)P(=O)(c2ccccc2)C1` (stereo unspecified) had a TGI above 100 µM.

`O=[N+]([O-])c1ccc(N2N=C(c3ccc(NCc4nc5ccccc5[nH]4)cc3)CC2c2ccco2)cc1` (stereo unspecified): the TGI was above 100 µM. The same measure, in the same setting: to `CN(C)c1ccc(/C=N\NC(=O)Nc2cccc3ccccc23)cc1` belongs 57.1 µM. As to `CN1C(=O)/C(=C/c2c(Cl)n(C)c3ccccc23)c2ccccc21`, the GI50 was 9.44 µM and the TGI worked out at 21.4 µM. The matching figures for `Cc1cc(C)c(NC(=O)c2sc3nc4c(cc3c2N)CN(Cc2ccccc2)CC4)c(C)c1`: 8.65 µM and above 100 µM. `CC(C)C(=O)NS(=O)(=O)c1ccccc1`: the TGI was above 100 µM. With `COc1ccc(-n2c(C)cc(-c3ccccc3)c2C)cc1`, the GI50 was 16.1 µM and the TGI was above 100 µM.

In turn, `CCCCSC1=N/C(=C\c2ccco2)C(Cl)=N1` yielded a TGI above 100 µM. For `C#CC(C)(C)OC(=O)C(=[N+]=[N-])C(C)=O`, the TGI is above 10 µM.

As for `CCn1c(=O)c2c(=O)c3c4c(oc3oc2c2ccccc21)C(=O)c1ccccc1C4=O`, the GI50 is above 100 µM and the TGI was above 100 µM. For `O=C1OCC2C1C1c3ccccc3C(O)c3ccccc3C21` (stereo unspecified), the TGI is above 100 µM. As to `O=C1C=CC(=O)c2c1ccc1c3ccccc3n(-c3cccc([N+](=O)[O-])c3)c21`, the TGI is above 10 µM.
